PubChem BioAssay AID488969 (Vanderbilt High Throughput Screening Facility, 2010)
Whole data set: some 110,000 compounds, median “z-score” near -0.1, cut for the highest 2% near 2. Some of the results follow.

target: Metabotropic glutamate receptor 8 (Rattus norvegicus) (UniProt P70579); assay: rat mGluR8 modulators via GIRK flux, primary screen, cell-based, thallium flux, HTS (AID 488969); conditions: HEK293 rat mGluR8, GIRK (G protein-gated inwardly rectifying potassium channel) thallium flux, FluoZin2; at 10 µM; stronger effect = higher value; submaximal glutamate (EC20) added with thallium
Chain of UniProt P70579 (P70579 whole entry, looked up): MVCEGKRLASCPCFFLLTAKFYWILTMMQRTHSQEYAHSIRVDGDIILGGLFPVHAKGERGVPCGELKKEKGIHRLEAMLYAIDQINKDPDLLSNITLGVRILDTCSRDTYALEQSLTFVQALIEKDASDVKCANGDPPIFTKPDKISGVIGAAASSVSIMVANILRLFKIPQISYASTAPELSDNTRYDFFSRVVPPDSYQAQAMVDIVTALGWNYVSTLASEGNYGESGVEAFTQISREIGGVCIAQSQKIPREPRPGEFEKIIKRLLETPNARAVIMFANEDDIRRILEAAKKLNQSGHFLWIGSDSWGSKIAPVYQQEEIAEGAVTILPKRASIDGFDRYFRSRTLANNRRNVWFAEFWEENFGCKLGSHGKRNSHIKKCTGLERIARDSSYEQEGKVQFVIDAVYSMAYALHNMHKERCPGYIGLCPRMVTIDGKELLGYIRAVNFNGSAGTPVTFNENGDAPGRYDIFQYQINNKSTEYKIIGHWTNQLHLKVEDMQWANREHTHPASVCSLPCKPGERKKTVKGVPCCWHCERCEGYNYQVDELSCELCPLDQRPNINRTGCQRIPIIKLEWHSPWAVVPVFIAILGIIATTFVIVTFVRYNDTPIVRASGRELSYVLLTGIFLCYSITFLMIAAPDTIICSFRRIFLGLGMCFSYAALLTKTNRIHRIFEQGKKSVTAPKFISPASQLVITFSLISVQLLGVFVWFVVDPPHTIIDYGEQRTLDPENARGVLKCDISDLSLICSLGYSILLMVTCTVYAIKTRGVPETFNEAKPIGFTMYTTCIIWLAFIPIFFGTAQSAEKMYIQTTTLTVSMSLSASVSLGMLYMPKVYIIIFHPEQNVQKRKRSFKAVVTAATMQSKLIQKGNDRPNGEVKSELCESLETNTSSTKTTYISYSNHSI

**Q.** COc1cccc(N=Nc2c(N)[nH]n3c(=O)cc(-c4ccccc4)nc23)c1 was tested. Which z-score did it give?
**A.** 0.0125

**Q.** Which z-score does the source give for Cc1cc(C)c(NC(=O)CN2CCN(C)CC2)c(C)c1 here?
**A.** -0.0797

**Q.** Cc1ccsc1C(=O)NNC(=S)NCC(C)C was tested. Which z-score did it give?
**A.** -0.212

**Q.** Which z-score does the source give for O=C(c1ccccc1)c1c(O)cc(-c2ccccc2)oc1=O here?
**A.** 0.0942

**Q.** For Cc1ccsc1C(=O)N(c1nc2ccccc2s1)c1c(C)cccc1C, which z-score is on record?
**A.** 0.0693

**Q.** With O=C(Nc1ccc(S(=O)(=O)N2CCCC2)cc1)c1ccc2c(=O)n3c(nc2c1)CCCCC3 as the compound, how does the z-score read?
**A.** 0.0927

**Q.** For CC1C(c2ccccc2)=[N+]([O-])C2(CCCCC2)N1O (stereo unspecified), which z-score is on record?
**A.** 0.201

**Q.** For O=C(NCc1ccccn1)C1CCCN(S(=O)(=O)c2ccc(Br)cc2)C1 (stereo unspecified), which z-score is on record?
**A.** 0.025

**Q.** Which z-score does the source give for Cc1ccc(C(=O)COc2ccccc2C(=O)Nc2ccccc2)cc1 here?
**A.** -0.138

**Q.** CC(C)(C)N1CC2(c3ccccc3)CN(C(C)(C)C)CC(c3ccccc3)(C1)C2=O was tested. Which z-score did it give?
**A.** 1.19

**Q.** With COc1ccc(CCNC(=O)c2cnn(-c3ccc(C)c(C)c3)c2NC(=O)c2ccco2)cc1OC as the compound, how does the z-score read?
**A.** -0.163

**Q.** With COc1ccccc1-n1cnnc1SCC(=O)Nc1ncc(Cl)cc1Cl as the compound, how does the z-score read?
**A.** -1.01

**Q.** With Cc1ccc(-c2noc(CN3CCOCC3)n2)cc1 as the compound, how does the z-score read?
**A.** 0.283

**Q.** With C/C(=N/NC(=O)c1cc2ccccc2cc1O)C1C(=O)c2ccccc2C1=O as the compound, how does the z-score read?
**A.** -0.443

**Q.** For CC(=O)Nc1ccc(S(=O)(=O)NCC(C)NS(=O)(=O)c2ccc(NC(C)=O)cc2)cc1 (stereo unspecified), which z-score is on record?
**A.** 0.018

**Q.** COc1ccc(CNC(=O)COC(=O)CCCOc2ccc(Cl)cc2Cl)cc1 was tested. Which z-score did it give?
**A.** -0.254

**Q.** For Cc1ccnn1CC(=O)N/N=C/c1ccco1, which z-score is on record?
**A.** -0.00195

**Q.** With CC(C)(C)OC(=O)N[C@@H](Cc1ccccc1)c1nnc(SCC(=O)O)o1 as the compound, how does the z-score read?
**A.** 0.308

**Q.** How did the z-score turn out when COc1ccc(/C=N/Nc2cc(OC)ncn2)cc1 was run?
**A.** -0.812

**Q.** How did the z-score turn out when CCOC(=O)NC1(NCc2ccccc2)Oc2ccccc2O1 was run?
**A.** 0.198

**Q.** CCOc1ccc2nc3c(cc2c1)CN(CCOC)C(=NCCOC)S3 was tested. Which z-score did it give?
**A.** -0.836

**Q.** CCOc1ccc(-c2cn(-c3ccc(OC)cc3)c(SC)n2)cc1 was tested. Which z-score did it give?
**A.** -0.0709

**Q.** For Cn1c(SCC(=O)O)nc2ccccc2c1=O, which z-score is on record?
**A.** 0.248

**Q.** With O=C(N1CCOCC1)C12CC3CC(C1)CC(c1ccccc1)(C3)C2 as the compound, how does the z-score read?
**A.** -0.0428

**Q.** How did the z-score turn out when Cc1ccn2c(/C=N/OCc3cccc(F)c3)c(-c3ccc(Cl)cc3)nc2c1 was run?
**A.** 0.076

**Q.** Which z-score does the source give for COc1ccc(Nc2nc(N)nc(CSCCO)n2)cc1 here?
**A.** 0.378

**Q.** For CCc1ccc(CCC(=O)Nc2ccc(C)cc2C)o1, which z-score is on record?
**A.** 0.169

**Q.** For Cc1ccc(NC(=O)c2cc(S(=O)(=O)N3CCCCC3)cs2)cc1, which z-score is on record?
**A.** -0.205

**Q.** How did the z-score turn out when CCOC(=O)Cn1nc(CC)c2ccccc2c1=O was run?
**A.** -0.286

**Q.** CCOC(=O)C1=C(C(F)(F)F)Nc2ncnn2C1c1cc(OC)c(OC)cc1OC (stereo unspecified) was tested. Which z-score did it give?
**A.** 0.305

**Q.** How did the z-score turn out when c1csc(C2Nc3cccc4cccc(c34)N2)c1 was run?
**A.** -0.272

**Q.** With CC(=O)Nc1ccc(OCC(O)CN2C(C)CCCC2C)cc1 (stereo unspecified) as the compound, how does the z-score read?
**A.** -0.417

**Q.** CC(C)Oc1ccc(CNC2CCOC(C)(C)C2)cc1 (stereo unspecified) was tested. Which z-score did it give?
**A.** -0.704

**Q.** With CC1CN(CC(O)COc2ccccc2C(C)(C)C)CC(C)O1 (stereo unspecified) as the compound, how does the z-score read?
**A.** -0.187

**Q.** With COc1ccc(OC)c(C2C(C(C)=O)=C(O)C(=O)N2c2ccc(O)cc2)c1 (stereo unspecified) as the compound, how does the z-score read?
**A.** 0.337

**Q.** For CCOC(=O)c1sc(NC(=O)CSc2nnc(Cc3ccccc3)o2)c(C(=O)OCC)c1C, which z-score is on record?
**A.** 0.315

**Q.** With CC(=O)c1ccc(S(=O)(=O)N2CCN(c3nc4c(C)c(C)ccc4cc3C#N)CC2)cc1 as the compound, how does the z-score read?
**A.** -0.378

**Q.** For CCc1cc2c(N[C@@H](Cc3c[nH]c4ccccc34)C(=O)O)ncnc2s1, which z-score is on record?
**A.** -0.16

**Q.** For COc1cc2c(C(=O)N3CCN(c4cccc(Cl)c4)CC3)cn(C)c(=O)c2cc1OC, which z-score is on record?
**A.** -0.848

**Q.** How did the z-score turn out when CCOC(=O)c1sc(NS(=O)(=O)c2ccccc2)nc1C was run?
**A.** -0.12

**Q.** Cc1nccn1CC(O)Cn1c2ccccc2c2ccccc21 (stereo unspecified) was tested. Which z-score did it give?
**A.** 2

**Q.** For O=c1c(Cl)c(NCCCO)cnn1-c1nc2ccccc2[nH]1, which z-score is on record?
**A.** 0.128

**Q.** Which z-score does the source give for Cc1ccc(-c2cc(C(=O)NCCCN3CCOCC3)no2)cc1 here?
**A.** -0.133

**Q.** CCOC(=O)/C(C#N)=N\Nc1ccc(S(=O)(=O)Nc2nc(C)cc(C)n2)cc1 was tested. Which z-score did it give?
**A.** -0.0878

**Q.** How did the z-score turn out when CCn1cc(C(=O)OCC(=O)c2cc(C)n(-c3ccccc3F)c2C)c(=O)c2ccc(C)nc21 was run?
**A.** -0.711

**Q.** COc1cc(C(=O)NCCN2CCCC2)cc(OC)c1OC was tested. Which z-score did it give?
**A.** -0.00934

**Q.** Which z-score does the source give for CC1CCCN(C(=O)c2cccc(S(=O)(=O)Nc3cc(C(F)(F)F)ccc3Cl)c2)C1 (stereo unspecified) here?
**A.** -0.43

**Q.** With O=[N+]([O-])c1ccc(N/N=C\c2ccccc2OCc2ccccc2)cc1 as the compound, how does the z-score read?
**A.** 0.105

**Q.** Which z-score does the source give for NC(=O)CS(=O)(=O)c1nc2ccccc2n1Cc1ccccc1F here?
**A.** 0.0397

**Q.** How did the z-score turn out when CCCC1(C(=O)OCC)NC(c2cc(OC)c(OC)c(OC)c2)C2C(=O)N(CC)C(=O)C21 (stereo unspecified) was run?
**A.** -0.129

**Q.** Which z-score does the source give for O=C1CCCCCN1Sc1ccccc1 here?
**A.** -1.11

**Q.** COc1cccc(C(=O)Nc2cccc(OCC(=O)O)c2)c1 was tested. Which z-score did it give?
**A.** -1.2

**Q.** Which z-score does the source give for CC(C)(C)c1ccc(C(=O)NC(=S)Nc2sc3c(c2C#N)CCC3)cc1 here?
**A.** -0.0657

**Q.** How did the z-score turn out when CCN1C(=O)NC2=C(C(=O)c3ccccc32)C1c1ccccc1F (stereo unspecified) was run?
**A.** -0.323

**Q.** With CN1CCN(CCCCC(=O)c2ccccc2)CC1 as the compound, how does the z-score read?
**A.** -0.0889

**Q.** How did the z-score turn out when O=C(COC(=O)CNC(=O)C12CC3CC(CC(C3)C1)C2)Nc1ccccc1 was run?
**A.** 1.89

**Q.** How did the z-score turn out when Cc1cc(C)cc(NC(=S)NCCN2CCOCC2)c1 was run?
**A.** -0.112

**Q.** Nn1cc(-c2ccccc2)nc1SCC(=O)N1CCN(S(=O)(=O)c2ccccc2)CC1 was tested. Which z-score did it give?
**A.** -0.317

**Q.** For CCc1cccc(NS(=O)(=O)c2ccc3c(c2)oc(=O)n3C)c1, which z-score is on record?
**A.** 0.151

**Q.** How did the z-score turn out when COc1ccc(/C(N)=N/OC(=O)c2cccc([N+](=O)[O-])c2)cc1OC was run?
**A.** 0.272

**Q.** Cc1nc2sc(C(c3ccc(F)cc3)N3CCOCC3)c(O)n2n1 (stereo unspecified) was tested. Which z-score did it give?
**A.** 0.149

**Q.** For CCOC(=O)N1CCN(CC(=O)Nc2ccc(C)c(Br)c2)CC1, which z-score is on record?
**A.** -0.241

**Q.** How did the z-score turn out when CC(C)(C)N(NC(=O)Nc1ccccc1)C(=O)c1ccccc1Cl was run?
**A.** 0.107

**Q.** With CSCCNC(C)=O as the compound, how does the z-score read?
**A.** -0.316

**Q.** For N#Cc1c2c(c(Nc3ccc(O)cc3)n3c1nc1ccccc13)CCC2, which z-score is on record?
**A.** 0.181

**Q.** Which z-score does the source give for C/C=C/C=N/Nc1nc(-c2ccc([N+](=O)[O-])cc2)cs1 here?
**A.** -0.273

**Q.** With Nc1c(NCCCN2CCOCC2)c2ccccc2oc1=O as the compound, how does the z-score read?
**A.** -0.3

**Q.** CCCCSc1nnc([C@@H]2CCCN2C(=O)OC(C)(C)C)o1 was tested. Which z-score did it give?
**A.** 0.0915

**Q.** With O=C(Nc1ccc(Cl)c(Cl)c1)Oc1ccc(NC(=O)c2ccco2)cc1 as the compound, how does the z-score read?
**A.** -0.288

**Q.** Which z-score does the source give for O=S(=O)(NCc1csc(-c2cccnc2)n1)c1ccc2c(c1)OCCO2 here?
**A.** 2.01

**Q.** How did the z-score turn out when CCOC(=O)c1sc2nc(C)nc(SCC(=O)NC(C)CCc3ccccc3)c2c1C (stereo unspecified) was run?
**A.** -0.115
